Experimental data: publication PMC3563590
No constants are given. Whether binding was seen depends on the method and setting. Binding seen in cells or lysates may run through a third protein. Some results given as binding are weak or reduced against the parent protein; the word gives no strength.

Amino acid sequences for entries named in this document (tags omitted). A change or cut given only in a name is not applied to a line headed by its entry.
UniProt Q13526: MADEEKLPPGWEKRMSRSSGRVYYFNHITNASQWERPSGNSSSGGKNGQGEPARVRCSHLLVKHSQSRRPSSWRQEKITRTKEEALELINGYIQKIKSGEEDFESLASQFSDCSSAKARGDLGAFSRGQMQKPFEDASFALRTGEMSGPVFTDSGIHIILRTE
UniProt P03372: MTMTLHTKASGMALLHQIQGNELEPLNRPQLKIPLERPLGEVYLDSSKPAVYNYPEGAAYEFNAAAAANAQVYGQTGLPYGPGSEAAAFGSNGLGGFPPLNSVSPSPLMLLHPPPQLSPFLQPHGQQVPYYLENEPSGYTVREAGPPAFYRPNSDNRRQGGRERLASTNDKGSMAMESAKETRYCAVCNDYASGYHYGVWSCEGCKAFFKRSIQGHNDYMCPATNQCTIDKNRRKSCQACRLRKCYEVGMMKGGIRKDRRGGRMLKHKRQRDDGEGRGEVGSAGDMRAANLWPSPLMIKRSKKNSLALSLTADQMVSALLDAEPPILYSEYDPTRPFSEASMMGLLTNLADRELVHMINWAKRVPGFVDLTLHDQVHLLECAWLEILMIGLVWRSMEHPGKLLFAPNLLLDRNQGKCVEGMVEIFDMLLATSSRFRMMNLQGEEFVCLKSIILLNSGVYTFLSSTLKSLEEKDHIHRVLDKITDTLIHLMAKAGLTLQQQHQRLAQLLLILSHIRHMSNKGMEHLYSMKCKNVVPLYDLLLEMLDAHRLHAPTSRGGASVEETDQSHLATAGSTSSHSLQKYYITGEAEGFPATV

How the values were obtained:
[1] = target: GST-Pin1 fusion protein (human) (UniProt Q13526); assay: pull-down; 10 ug GST or GST-Pin1 on glutathione agarose beads with 1 mg lysate of 293FT cells transfected with His-tagged ERalpha domains, blot with anti-6xHis; also 293FT cells with shRNA against CDK1, CDK2 or CDK4 (less CD domain with shRNA CDK2); only the target purified
[2] = target: GST-Pin1 fusion protein (human) (UniProt Q13526); assay: pull-down; 10 ug GST fusion protein on glutathione agarose beads with 1 mg MCF7 lysate, blot for ERalpha; cells without FBS and estradiol unless indicated; also cells treated with LY294002 for 16 hours, with or without FBS (marked reduction); only the target purified
[3] = target: Peptidylprolyl isomerase 1 (Pin1), endogenous in MCF7 cells (human (endogenous in MCF7)) (UniProt Q13526); assay: co-IP; MCF7 lysate (20 mM Tris HCl pH 8, 137 mM NaCl, 10% glycerol, 1% NP40, 2 mM EDTA), 1 mg protein, 4 ug anti-Pin1 overnight at 4 C, protein A/G beads, blot for ERalpha; serum-starved cells treated with estradiol or ethanol for 45 min
[4] = target: GST-Pin1 fusion protein (human) (UniProt Q13526); assay: pull-down; data not shown: GST-Pin1 with lysates of MCF7 cells treated with the Her2 inhibitor AG825 or the Mek1/2 inhibitor U0126; only the target purified

| Substance | binding [1] | binding [2] | binding [3] | binding [4] |
| --- | --- | --- | --- | --- |
| ERalpha His-AB (domains A/B with C-terminal histidine tag) (from UniProt P03372 1-181) (domain or fragment) | no binding |  |  |  |
| ERalpha His-CD (CD domain with C-terminal histidine tag) (from UniProt P03372 179-303) (domain or fragment) | binds |  |  |  |
| ERalpha His-EF (EF domain with C-terminal histidine tag) (from UniProt P03372 301-595) (domain or fragment) | no binding |  |  |  |
| Estrogen receptor alpha (ERalpha), endogenous in MCF7 cells (from UniProt P03372 1-595) |  | binds | binds | binds |
